# From the supplement of paper PMC11417369
# ± gives the standard deviation of the averaged measurements. Some of the results follow.
# Tested on: PfAP2-G AP2 domain (GST-tagged)
# Assay: gcPBM binding intensity (ln(normalized median fluorescence intensity)); higher = stronger DNA binding
# Outline: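 Using an Agilent 4 × 180k array, primer-extended double-stranded 36-bp intergenic genomic probes and negative controls were exposed for 1 h to GST-fused P. falciparum DNA-binding domains expressed in E. coli. Binding was carried out in 1× PBS with 1% milk, 0.2 mg/ml BSA, 0.5% salmon testes DNA and 0.03% Triton X-100, and protein was detected with Alexa488 anti-GST antibody and a 488 nm scan. Binding intensity is the highest Masliner-normalised natural-log median intensity across replicate spots of either probe orientation.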
row,Sequence,gcPBM binding intensity (ln)
1,GTTACTGCATACATAACACACATATTCAAAACACAT [CACACA_site3502],10.09 ± 0.064
2,AAAGATATTTTTATCTCACACATATAATATATATAT [CACACA_site5478],9.84 ± 0.16
3,AAAAATTACCTGACTTGTACATAATTTAAGAACAAT [XGTACX_site6233],11.1 ± 0.63
4,ATAATATATTTATAATGTACATAAGAACAAATTAAA [XGTACX_site1745],11.1 ± 0.55
5,GGTATATTAAAATAGGTGCATAAAACTAAGAGAAAA [GTGCAC_site9781],10.3 ± 0.24
6,ACGTTTGATACACATAAAGTTTTCCTTTGAATGTAC [CACACA_negctrl_site106],11 ± 0.67
7,TGTGCTATATTCATATGTACATATAATTATTATATA [XGTACX_site3549],11.2 ± 0.72
8,ATAAAATAAAAGTGTACACAAGAAAATATGTTATGT [CACACA_site6033],11.6 ± 0.79
9,TATTTATGAGAAATAGTGCAAAGATATGATCTTTAA,9.8 ± 0.014
10,AATTAAAAACATTTCACACATAAAAATGAAATATAT [CACACA_site5199],9.84 ± 0.028
11,TAAAATATATAATAATGTACATATTTTTATTTAGGA [XGTACX_site4987],11.2 ± 0.73
12,AATAATACACAATTTTGTACGTATTTAAAATATATT [XGTACX_site45],11.3 ± 0.87
13,AACTCACATAAATTCACACAAATGTATATTCATATA [CACACA_site4554],9.7 ± 0.15
14,ATTGATCGGATAAAATGTACAAATATATATATATAT [XGTACX_site7345],10.8 ± 0.24
15,ATTTATAATGTGTATACACACATATATAGATTTGCT [CACACA_site6440],9.89 ± 0.042
16,TGATTCTTTTGTATCACACACACTTAGTTTAATTTT [CACACA_site2404],10 ± 0.17
17,ACTTGACACGGACACACACACATATATAAAAAAAAA [CACACA_site4576],11.2 ± 0.91
18,TTTTTTTATTATCATGCACACATTTTTTTTTTTTAC [CACACA_site2253],10.07 ± 0.099
19,TCCTTTATTTTTAAATGTACAAATATTATCTCCTCA [XGTACX_site5856],10.8 ± 0.52
20,ATAATAAAAATAAGAGAATAAAAATGCAATTTAATG [CACACA_negctrl_site878],9.65 ± 0.23
21,TATATATATATATATTGTACACATATATATTTACGA [XGTACX_site4791],11.3 ± 0.83
22,AAATTATAATATAATACACACATAAAAAAAAAATCA [CACACA_site3634],9.975 ± 0.049
23,AAAAAATAATAAATCACACATATTATATATATATAT [CACACA_site5838],9.85 ± 0.39
24,AACATGAAAGATAGCAAAAAAAAAAAAAAAAAAAAA [TGCATGCA_negctrl_site607],9.48 ± 0.42
25,ATTATAATATTGTTATGTACATAAAAATTATTGAAT [XGTACX_site4476],11.3 ± 0.73
